# Measurements reported in PubChem BioAssay AID445 (National Center for Advancing Translational Sciences (NCATS), 2006).
# The campaign covered roughly 110,000 compounds. About 40 (0.04%) were called active. Inconclusive means that the source gave no clear call. Such entries were picked first, then a sample of the others. Calls come from the whole dose curve; as a rule, active = well fitted curve in the direction sought with a large enough effect in the signal ratio (not every such curve was filed as active); inconclusive = small, poorly fitted or top-dose-only effect, or a change in a side signal; inactive = flat fitted curve, though single readings scatter; the % refers to the signal ratio. Where the call is inconclusive, the potency comes from a doubtful curve fit.
# Assay: IkB Signaling;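 for IkBa stabilization activation: 0% = basal untreated cells and 100% = reference inhibitor full response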
# Details: ABC-DLBCL IkBa-CBG/CBR dual luciferase ratio (green luciferase fused to IkBa over red control in OCI-Ly3 lymphoma cells), 4 h, scaled: untreated 0%
# Excerpt: NIH Molecular Libraries Screening Centers Network [MLSCN]
# NIH Chemical Genomics Center [NCGC]
# Nuclear factor kappa-B (NF-kappa-B) plays an important role in normal B cell development and survival. Diffuse large B cell lymphoma (DLBCL) is the most commonly observed type of non-Hodgkin's lymphoma. Gene expression analysis has identified an activated B cell-like subtype of DLBCL (ABC-DLBCL) which expresses known NF-kappa-B target genes. […] However, targets upstream of IKK have been largely unexplored and so nodes upstream of IKK in the NF-kappa-B pathway remain untested due to the lack of chemical probes.
# A cell-sensor assay for I-kappa-B-alpha stabilization was developed with NIH investigator Dr. R. Eric Davis in Dr. Louis M. Staudt's laboratory. The assay uses green (CBG68) and red (CBR) emitting beetle luciferases [Chroma-Glo(TM) developed by Promega Corp.] where the green luciferase is fused to I-kappa-B-alpha and the red luciferase is present in its native state. Both luciferase genes are stably present in the OCI-Ly3 human ABC DLBCL cell line, but their expression is under the control of tetracycline-inducible promoters. Following the addition of doxycycline to induce expression of the luciferases, the green luminescence in control cultures rises only slowly because the CBG fusion partner I-kappa-B-alpha is targeted by IKK activity for rapid degradation. In contrast, green luminescence rises rapidly in the presence of proteasome inhibitors or IKK inhibitors. The rise in red luminescence of CBR is not affected by proteasome or IKK inhibitors, and serves as normalization for cell number and nonspecific effects. Compounds were screened as a concentration-titration series that ranged from 57 uM to 0.7 nM.
# NCGC Assay Protocol Summary:
# Cells were seeded in 1536-well plates at 5000 cells/3ul in IMDM medium containing 0.5% FBS, w/o phenol red, L-glutamine, 25 mM HEPES, 3 mg/ml sodium bicarbonate. After centrifugation for 1 min. at 1000 rpm, 23 nl of compounds or DMSO were delivered to each well using a pin tool. Then 1ul 80ng/ml doxycycline was dispensed into white solid 1536-well plates and the plates were incubated at 37C/5% C02 in a cell incubator for 4 hrs. Then 4 ul Chroma-Glo luminescent substrate mix (Promega) was added to each well. The plate was incubated at R.T. for 10-15 min. The plates were measured on a ViewLux plate reader for green luminescence (540/20 nm filter) and red luminescence (618/8 nm filter). The green and red luminescent signals were corrected for red and green luminescence filter overlap using previously determined filter calibration constants (determined using the procedure outlined in the Promega Technical Manual). The %Activity was determined from the ratio of corrected green/red luminescent values. Green luminescent and ratio %Activity was determined by normalizing to the difference in signal between basal cells (0% Activity) and cells incubated with 10 uM of the proteasome inhibitor MG-132 (100% Activity). Red luminescent %Activity was normalized to the difference between red luminesence in basal cells (0%Activity) and zero luminescence (-100% Activity).
# Concentration-response curves were fitted to the signals arising from the green luminescence (I-kappa-B-alpha-luciferase fusion; IkB-luc) and the red luminescence (unfused luciferase; luc) as well as the calculated ratio. The concentration-effect curves were then classified based on curve quality (r2), response magnitude and degree of measured activity. Compounds were then categorized based on their concentration-response curves for all three datasets (Ikb-luc, luc and ratio).
# Keywords: IKK, I-kappa-B, IkB, IkBa, cytotoxicity, luminescence, MLSMR, MLSCN, NIH Roadmap, qHTS, NCGC
# [1] = IkBa stabilization activation: at 57.1 µM (top of the series), proteasome inhibitor 100% unless noted
# Potency is the fitted concentration of half-maximal effect.
smiles,measurement,setting,value
CN(C)[C@@H]1C(=O)C(C(N)=O)=C(O)[C@]2(O)C(=O)C3=C(O)c4c(O)cccc4[C@@](C)(O)[C@@H]3C[C@@H]12,IkBa stabilization activation,[1],"inactive: 2.46% [at 11.4 µM, scaled: untreated 0%, proteasome inhibitor 100%]"
COc1ccc(OCC(=O)N2CCN(CCc3ccncc3)CC2)cc1,IkBa stabilization activation,[1],inconclusive: -0.483% [signal inhibitor]
O=[As](O)(O)c1ccc(N=Nc2ccc(O)cc2)cc1,IkBa stabilization activation,[1],"inactive: -1.14% [at 11.4 µM, scaled: untreated 0%, proteasome inhibitor 100%]"
O=C1OCCN1P(=O)(c1ccccc1)c1ccccc1,IkBa stabilization activation,[1],inactive
CC1=NN(c2ccccc2)C(=O)[C@@H]1N=Nc1ccc([As](=O)(O)O)c(O)c1,IkBa stabilization activation,[1],"inactive: -2.85% [at 11.4 µM, scaled: untreated 0%, proteasome inhibitor 100%]"
CC(C)(c1ccc(OCC2CO2)cc1)c1ccc(OCC2CO2)cc1 (stereo not drawn),Potency,[1],"inconclusive: 39.8 µM [rising, partial curve]"
CC[C@@](O)(C(=O)O)c1cc2n(c(=O)c1CO)Cc1cc3ccccc3nc1-2,IkBa stabilization activation,[1],"inconclusive: 14.2% [signal inhibitor] [at 11.4 µM, scaled: untreated 0%, proteasome inhibitor 100%]"
CN1CCN(c2ccc([N+](=O)[O-])c3[nH]o[n+](=O)c23)CC1,IkBa stabilization activation,[1],"inconclusive: 14.2% [signal inhibitor] [at 11.4 µM, scaled: untreated 0%, proteasome inhibitor 100%]"
Cc1c(C(c2ccc(Br)cc2)c2c(O)c3ccccc3oc2=O)c(=O)n(-c2ccccc2)n1C (stereo not drawn),IkBa stabilization activation,[1],inconclusive: 16.8% [signal inhibitor]
C=C(C)CN1CC[C@@]23c4c5ccc(O)c4O[C@H]2c2[nH]c4ccccc4c2C[C@]3(O)[C@@H]1C5,IkBa stabilization activation,[1],inconclusive: 1.39% [signal inhibitor]
CC(=O)c1ccccc1NC(=O)C1C2CCC(O2)C1C(=O)O (stereo not drawn),Potency,[1],"inconclusive: 31.6 µM [rising, single point]"
Cc1nn(-c2ccccc2)c2c1C(c1ccc3c(c1)OCO3)SCC(=O)N2 (stereo not drawn),IkBa stabilization activation,[1],inactive
Fc1ccc(C(OCCN2CCN(CCCc3ccccc3)CC2)c2ccc(F)cc2)cc1,IkBa stabilization activation,[1],inconclusive: 1.38% [signal inhibitor]
same,IkBa stabilization activation,"at 25.6 µM (top of the series), proteasome inhibitor 100%",inactive: -0.524%
same,IkBa stabilization activation,"at 57.1 µM (top of the series), proteasome inhibitor 100%",inactive: -1.04%
CC(C)[C@@]1(NC(=O)[C@@H]2C[C@H]3c4cccc5[nH]cc(c45)C[C@@H]3N(C)C2)O[C@]2(O)[C@H]3CCCN3C(=O)CN2C1=O,IkBa stabilization activation,[1],inactive
CN1CCC(O)(c2ccccc2)C(C(=O)c2ccccc2)C1 (stereo not drawn),IkBa stabilization activation,[1],inconclusive: 2.85% [signal inhibitor]
C=C(C)[C@H]1Cc2c(ccc3c2O[C@@H]2COc4cc(OC)c(OC)cc4[C@@H]2C3=O)O1,IkBa stabilization activation,[1],"inconclusive: 16.4% [signal activator] [at 11.4 µM, scaled: untreated 0%, proteasome inhibitor 100%]"
NNC(=O)c1ccc(O)cc1,Potency,[1],"inconclusive: 1.26 µM [signal inhibitor, full curve]"
C[C@H](c1ccccc1)N1CCN([C@@H](C)c2ccccc2)CC1,IkBa stabilization activation,[1],"inactive: 1.95% [at 11.4 µM, scaled: untreated 0%, proteasome inhibitor 100%]"
CC[C@H](CO)NC(=O)[C@@H]1C=C2c3cccc4c3c(cn4C)C[C@@H]2N(C)C1,IkBa stabilization activation,[1],inactive
Oc1ccc2c3c1O[C@@H]1c4[nH]c5c(c4C[C@@]4(O)[C@@H](C2)N(CC2CC2)CC[C@]314)C[C@]1(O)[C@@H]2Cc3ccc(O)c4c3[C@@]1(CCN2CC1CC1)[C@H]5O4,IkBa stabilization activation,[1],inactive
N[C@@H]1CCc2cc(O)c(O)cc2C1,IkBa stabilization activation,[1],inactive
O=C(CN1CCOCC1)c1ccc2cc[nH]c2c1,IkBa stabilization activation,[1],inactive
Cc1ccc(-c2nn3c(=O)cc(CN4CCN(C(=O)COc5ccc(C)c(C)c5)CC4)nc3s2)cc1,IkBa stabilization activation,[1],inconclusive: 2.31% [signal inhibitor]
C[C@@H]1CCC/C=C\[C@H]2C[C@H](O)C[C@@H]2[C@H](O)/C=C\C(=O)O1,IkBa stabilization activation,[1],"inactive: 1.47% [at 11.4 µM, scaled: untreated 0%, proteasome inhibitor 100%]"
COc1ccc(Cn2c(N)c(C(=O)NCc3ccco3)c3nc4ccccc4nc32)cc1OC,IkBa stabilization activation,[1],inactive
CCOc1cc2[nH]c(=S)n(CCCC(=O)N3CCC4(CC3)OCCO4)c(=O)c2cc1OCC,IkBa stabilization activation,[1],inconclusive: 1.81% [signal inhibitor]
CCCC1=Nc2cc(C(=O)NCCCN(CC)CC)ccc2Sc2ccccc21,IkBa stabilization activation,[1],inconclusive: 0.686% [signal inhibitor]
CCN(CC)C(=O)c1ccc(NC(=O)c2ccc(-c3nn(C)c(=O)c4ccccc34)cc2)cc1,IkBa stabilization activation,[1],inconclusive: 1.95% [signal inhibitor]
Cc1ccc(-c2nc(CN3C(=O)CN=C(c4ccccc4)c4ccccc43)c(C)o2)cc1,IkBa stabilization activation,[1],inconclusive: -0.604% [signal inhibitor]
COc1ccc(C=O)cc1,IkBa stabilization activation,[1],inactive
COc1ccccc1C1SCC(=O)Nc2c1c(C)nn2-c1cccc(C)c1 (stereo not drawn),IkBa stabilization activation,[1],inconclusive: 3.17% [signal inhibitor]
